The IC50 comes from the fitted curve, where viability falls to half of the control; where the fit passes the top or lowest dose, that dose stands as a limit. AUC sums up the same curve from the lowest dose to the 256-fold higher top dose: 1 means no effect, lower means more sensitive. For part of these data: Any top dose called inferred comes from the curve model; the source does not state it. For part of these data: Drugs with an entry number were screened twice under separate entries, and the two screens often disagree.
Experiments:
Test in all cases: Viability of human cancer cell lines after 72 h of drug (GDSC screen)
Tamoxifen = compound: CC/C(=C(\c1ccccc1)c1ccc(OCCN(C)C)cc1)c1ccccc1 [Tamoxifen]; settings: top dose 5 µM
Description: (§1)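 Human cancer cell lines in 384-well plates, medium with 10% serum, drug for 72 h over a 256-fold dose range (nine 2-fold or five 4-fold steps up to the top dose). Adherent lines were fixed and stained with the nucleic acid dye Syto60, suspension lines read with resazurin; signal relative to control wells, capped at 0 and 100%. One two-parameter sigmoid per drug and line, fitted in a mixed model over all curves with the slope shared within a line.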

VNLG/124 = compound: CCCC(=O)OCc1ccc(OC(=O)/C=C(C)/C=C/C=C(C)/C=C/C2=C(C)CCCC2(C)C)cc1 [VNLG/124]; settings: top dose 5.12 µM; top dose inferred
Description: as §1

Elesclomol = compound: CN(NC(=O)CC(=O)NN(C)C(=S)c1ccccc1)C(=S)c1ccccc1 [Elesclomol]; settings: top dose 0.2 µM; top dose inferred
Description: as §1

HG-5-88-01 = compound: COc1cc(N2CCC(C(N)=O)CC2)ccc1Nc1nc(N)c(Cl)c(Nc2ccccc2S(=O)(=O)C(C)C)n1 [HG-5-88-01]; settings: top dose 10 µM; top dose inferred
Description: as §1

Bleomycin = compound: Cc1c(N)nc([C@H](CC(N)=O)NC[C@H](N)C(N)=O)nc1C(=O)N[C@H](C(=O)N[C@H](C)[C@@H](O)[C@H](C)C(=O)N[C@H](C(=O)NCCc1nc(-c2nc(C(=O)NCCC[S+](C)C)cs2)cs1)[C@@H](C)O)[C@@H](OC1OC(CO)C(O)C(O)C1OC1OC(CO)C(O)C(OC(N)=O)C1O)c1cnc[nH]1 [Bleomycin]
Description: as §1

Masitinib = compound: Cc1ccc(NC(=O)c2ccc(CN3CCN(C)CC3)cc2)cc1Nc1nc(-c2cccnc2)cs1 [Masitinib]; settings: top dose 20 µM
Description: as §1

LAQ824 = compound: O=C(/C=C/c1ccc(CN(CCO)CCc2c[nH]c3ccccc23)cc1)NO [LAQ824]; settings: top dose 1.024 µM; top dose inferred
Description: as §1

OSI-930 = compound: O=C(Nc1ccc(OC(F)(F)F)cc1)c1sccc1NCc1ccnc2ccccc12 [OSI-930]; settings: top dose 10.24 µM
Description: as §1

BX-912 = compound: O=C(Nc1cccc(Nc2ncc(Br)c(NCCc3cnc[nH]3)n2)c1)N1CCCC1 [BX-912]; settings: top dose 10.24 µM; top dose inferred
Description: as §1

NSC-87877 = compound: O=S(=O)(O)c1ccc2cc(N=Nc3cc(S(=O)(=O)O)c4cccnc4c3O)ccc2c1 [NSC-87877]; settings: top dose 16 µM; top dose inferred
Description: as §1

[1] = top dose 50 µM, screen: GDSC drug entry 1378, top dose inferred
[2] = top dose 64 µM, screen: GDSC drug entry 190

Cell Line	AUC (Tamoxifen)	IC50 (Tamoxifen) [µM]	AUC (VNLG/124)	IC50 (VNLG/124) [µM]	AUC (Elesclomol)	IC50 (Elesclomol) [nM]	AUC (HG-5-88-01)	IC50 (HG-5-88-01) [µM]	AUC (Bleomycin; [1])	IC50 (Bleomycin; [1]) [µM]	AUC (Bleomycin; [2])	IC50 (Bleomycin; [2]) [µM]	AUC (Masitinib)	IC50 (Masitinib) [µM]	AUC (LAQ824)	IC50 (LAQ824) [nM]	AUC (OSI-930)	IC50 (OSI-930) [µM]	AUC (BX-912)	IC50 (BX-912) [µM]	AUC (NSC-87877)	IC50 (NSC-87877) [µM]
SW1271 (small cell lung carcinoma, adherent)	0.981	> 5	0.984	> 5.12	0.671	40.5	0.981	> 10	0.75	18.6	0.255	0.701	0.907	> 20	0.635	161	0.971	> 10.2	0.845	9.15	0.984	> 16
HCC2157 (breast, suspension)	0.985	> 5	0.985	> 5.12	0.587	22	0.945	> 10	0.902	> 50	0.876	> 64	0.987	> 20	0.327	20.5	0.943	> 10.2	0.981	> 10.2	0.945	> 16
NUGC-4 (stomach, adherent)	0.985	> 5	0.976	> 5.12	0.939	> 200	0.915	> 10	0.82	28.7			0.948	> 20	0.525	74.7	0.966	> 10.2	0.967	> 10.2	0.985	> 16
BL-41 (Burkitt lymphoma, suspension)	0.991	> 5	0.974	> 5.12	0.369	5.98	0.994	> 10	0.671	8.25	0.718	13.9	0.873	11.9	0.262	16.4	0.834	4.59	0.341	0.261	0.988	> 16
KNS-42 (glioma, adherent)	0.982	> 5	0.977	> 5.12	0.891	> 200	0.975	> 10	0.901	> 50	0.942	> 64	0.936	> 20	0.72	308	0.969	> 10.2	0.942	> 10.2	0.981	> 16
TE-9 (oesophagus, adherent)	0.978	> 5	0.981	> 5.12	0.794	96.6	0.897	> 10	0.608	6.25	0.72	17.3	0.962	> 20	0.613	132	0.975	> 10.2	0.968	> 10.2	0.987	> 16
HuP-T4 (pancreas, adherent)	0.967	> 5	0.984	> 5.12	0.633	29.9	0.712	2.59	0.444	2.17	0.281	0.915	0.87	> 20	0.499	63.7	0.894	> 10.2	0.758	3.74	0.984	> 16
C2BBe1 (large intestine, adherent)	0.984	> 5	0.938	> 5.12	0.695	47.9	0.928	> 10	0.852	47.3	0.807	38.3	0.937	> 20	0.532	79.3	0.932	> 10.2	0.972	> 10.2	0.943	> 16
EPLC-272H (lung squamous cell carcinoma, adherent)	0.957	> 5	0.957	> 5.12	0.648	34.1	0.883	> 10	0.605	6.32	0.266	0.776	0.874	> 20	0.557	93.3	0.876	> 10.2	0.542	0.843	0.978	> 16
IST-MEL1 (melanoma, adherent)	0.974	> 5	0.982	> 5.12	0.465	9.86	0.935	> 10	0.331	0.959	0.21	0.462	0.914	> 20	0.411	34.7	0.957	> 10.2	0.941	> 10.2	0.982	> 16
NCI-H2347 (lung adenocarcinoma, adherent)	0.96	> 5	0.981	> 5.12	0.648	35.3	0.9	> 10	0.774	23.9	0.517	4.49	0.975	> 20	0.542	85.6	0.927	> 10.2	0.969	> 10.2	0.961	> 16

Reference: the supplement of paper PMC4967469
